These results are taken from PubChem BioAssay AID1918932 (Molecular Pharmacology Branch, DTP, NCI, 2023).

Certain results were filed several times, with different values. This list holds those alone. The source may hold further records. The values listed for one entry are repeated measurements in other runs, samples, wells, individuals or studies. Additions like (4×) stand for listed records that agree. Where only a bound is given, the exact number is not on record here.

For the experiment, the system named is 171881-019-R-J1-PDC complex spheroid viability. Description: Anticancer human tumor 171881-019-R-J1-PDC patient-derived invasive breast carcinoma cell line growth inhibition. The following applies: for viability, T/C: stronger effect = lower value. The source says: Multicellular complex tumor spheroid response to LSD1 Inhibitor Iadademstat in combination with a variety of drugs and investigational agents in selected tumor cell lines
The current study was undertaken to assess response to LSD1 inhibitors in combination with standard-of-care drugs and investigational agents in solid tumor complex spheroid models as well as in the K-562 leukemia. Complex spheroids include a stromal component modeled by human endothelial cells (HUVEC) and fibroblasts modeled by human mesenchymal stem cells (MSCs). The concentration ranges selected for each drug and investigational agent were based upon clinically achievable concentrations if the clinical Cmax of the agent was known.
Compounds. The drugs and investigational agents used in this study are listed on Table 1. All of the agents used, including staurosporine (NSC755774) and gemcitabine (NSC613327), were obtained from the Developmental Therapeutics Program, NCI. FDA-approved anticancer drugs are available from the NCI at http://dtp.nci.nih.gov/branches/dscb/oncology_drugset_explanation.html. Drugs and investigational agents were >95% pure by proton nuclear magnetic resonance (NMR) and liquid chromatography/mass spectrometry (LC/MS). Stock solutions were prepared at 400x in DMSO, stored at -70 degrees C, and diluted in fresh medium prior to their use. The final concentration of DMSO in cell culture wells never exceeded 0.25% (v/v). The FDA-approved anticancer drug set is available from the Developmental Therapeutics Program at https://dtp.cancer.gov/organization/dscb/obtaining/available_plates.htm. All drugs and investigational agents were tested over a range starting from a high concentration at or near the clinical Cmax and decreasing in half-log increments. If the clinical Cmax for an agent had not been determined, the highest concentration tested was 10 microM.
Cell Lines. The patient-derived cancer cell (PDC) lines: 292921-168-R-J2-PDC, K24384-001-R-PDC, and 521955-158-R2-J5-PDC pancreatic carcinomas, 556581-035-R-J1 ovarian carcinoma, 324938-238-R-J1-PDC, 855422-203-R-J1-PDC and 883617-216-R-J1-PDC urothelial bladder carcinomas, 743489-274-T-PDC renal cell carcinoma, 138582-R-J1 Merkel cell tumor, K60290-347-R-J1 and K57222-313-R-J1-PDC glioblastomas, 653999-131-R-J2-PDC, LG0703-F948-PDC, and 349418-098-R-PDC non-small cell lung carcinomas, 885512-296-R-J2-PDC, 171881-019-R-J1-PDC breast carcinomas and 186277-243-T-J2-PDC and 233499-124-R-J2-PDC colon carcinomas were obtained from the NCI Patient-Derived Models Repository (PDMR, https://pdmr.cancer.gov). The established cell lines NCI/ADR-RES (RRID:CVCL_14520 and OVCAR-5 (RRID:CVCL_1628) ovarian carcinomas, 786-O (RRID:CVCL_1051) and A498 (RRID:CVCL_A498) renal cell carcinoma, NCI-H211 (ATCC, cat. CRL-5824; RRID:CVCL_1529), NCI-H196 (ATCC, cat. CRL-5823, RRID:CVCL_1509), SW 1271 (ATCC, cat. CRL-2177, RRID:CVCL_1716) and NCI-H1876 (ATCC, cat. CRL-5902, RRID:CVCL_1503) small cell lung carcinomas, MDA-MB-231 (RRID:CVCL_0062) and MDA-MB-468 (RRID:CVCL_0419)breast carcinomas (10-12). Pooled donor human umbilical vein endothelial cells (HUVEC, Lonza, cat. CC-2519) and human mesenchymal stem cells (hMSC, Lonza, cat. PT-2501) were purchased from Lonza (Walkersville, MD).
Cell Culture. All cells were maintained in an incubator at 37 degrees C and 5% CO2 with 95% humidity. The PDC lines were cultured according to standard operating procedures established by the NCI PDMR (https://pdmr.cancer.gov). Briefly all PDCs were thawed and cultured in Matrigel-coated flasks prepared with a working solution of 1X Ham's F-12 nutrient mix, without supplementation (Invitrogen, Waltham, MA, cat. 11765054), 100 U/mL penicillin-streptomycin (Invitrogen, cat. 15140122), and 2.5% Matrigel (Corning Inc., Corning, NY, cat. 354248) for the first three passages. […]
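Also: spheroids exposed to agents for 7 days after 3 days growth.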

By IC50 is commonly meant the midpoint of a concentration-inhibition curve. As for `NC1CC1c1ccc(-c2cccc(O)c2)cc1` (centres undefined), under “combination with iadademstat, compound alone, run of 02/21/2022”, the IC50 is recorded as > 10 µM, 5.43 µM, < 100 nM, 813 nM. Besides, the viability, T/C runs as follows: (compound alone 0.316 µM) 108 (4×), 109, 105, 101 (3×), 103 (2×), 107 (3×), 106 (3×), 110 (3×), 68.2, 102, 104 (2×), 112%; (compound alone 1 µM) 104 (2×), 105 (4×), 110, 107 (3×), 100, 103 (4×), 77.8, 108 (4×), 106, 49.7, 37.9, 102, 109%; (compound alone 3.16 µM) 103 (2×), 101 (2×), 107, 109, 102, 95.2, 61.3, 104, 106 (2×), 44, 48.2, 105 (2×), 108, 99.7, 100 (2×), 96.6, 93.5, 94.4, 113, 99.9%; (compound alone 10 µM) 86.2, 80.4, 87.2 (2×), 92.2, 85.7, 85.2, 39.1, 94.8, 92.4, 89.6, 35.5, 30.5, 83.5, 86.3, 87.3, 88.5 (2×), 88.7, 84.9, 85.4, 91.8, 83.3, 95.2, 86.6%.
As to `NC1CCC(NC2CC2c2ccccc2)CC1` (centres undefined), the viability, T/C by setting is: (compound alone 0.1 µM) 81.3, 89.9 (2×), 82.3, 78.4, 82.6, 96.1, 84.8, 90, 96.6, 86.8 (2×), 82.2, 83.4, 88.8, 89.6, 89.1, 82.1, 95.9, 74.3, 97, 72.9, 85.8, 99.4, 80.7%; (compound alone 1 µM) 74.2, 80.8, 88.6, 80, 91.3 (2×), 106, 91.6, 85.4, 81.1, 85.8, 87.2, 95.7, 74.9, 97.9, 84.2, 88.1, 93.6, 83.3, 79, 87.6, 81.8, 87.7, 78.2, 82%; (compound alone 3.16 µM) 76, 89.3, 74.2, 78.7, 93.6, 82.9, 92.2, 90.1, 92.4, 80.3, 85.8, 89.6, 90.8, 82.3, 79.8, 87.2 (2×), 91, 78, 85.2, 99.9, 81.5, 96.2, 89.2%; (compound alone 10 µM) 75.7, 80.2, 72.8, 71.6, 92.8, 86.5, 97.2, 84.2, 88.3, 95.9, 89.2, 84.3, 107, 85.3, 102, 79.8, 83.5, 84.6, 85.6, 75.9, 94.2, 84.8, 81.6%.
